The other results are listed elsewhere or left out.

From PMC7819943, “Rice protein-binding microarrays: a tool to detect cis-acting elements near promoter regions in rice” come the findings set out here.

This assay has as its target T1, OsWOX13 (Oryza sativa, UniProt Q5QMM3 1-267).
T1 sequence: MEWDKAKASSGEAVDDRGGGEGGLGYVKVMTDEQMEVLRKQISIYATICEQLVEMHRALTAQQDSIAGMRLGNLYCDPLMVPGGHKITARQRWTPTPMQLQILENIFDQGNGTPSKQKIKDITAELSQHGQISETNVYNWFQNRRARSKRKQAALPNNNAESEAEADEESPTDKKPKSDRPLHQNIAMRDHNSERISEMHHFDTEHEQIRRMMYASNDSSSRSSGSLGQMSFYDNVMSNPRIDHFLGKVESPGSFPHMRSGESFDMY
As to the kind of experiment: protein-binding microarray (RPBM); PBS, 2% BSA, 51.3 ng/ul salmon testes DNA, 50 uM zinc acetate, 200 nM TF, 25 C, 1 h; high values mean tight binding. The settings on record: protein: recombinant; tags: N-terminal polyhistidine and DsRed monomer fusion (pET32a); label: CyDye5-dUTP incorporated in the synthesized complementary strand; 3' TTTTT single-stranded linker to array surface; dsDNA, one strand shown. A digest of the protocol:
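Transcription factors, each fused N-terminally to a polyhistidine tag and DsRed, were expressed in E. coli BL21-CodonPlus and purified on Ni–NTA. A custom Agilent array was made double-stranded by primer extension with Cy5-dUTP and blocked with 2% BSA. It was incubated with 200 nM protein in PBS, 2% BSA, salmon testes DNA and 50 µM zinc acetate at 25 °C for 1 h, then washed. The binding signal is per-feature fluorescence intensity (arbitrary units) read on an Axon 4000B scanner.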
“GTAACTTATTCTTAATTGCTTTTGATGAGTTGACTTCGTTCGGAGTCACCTAGTGCAG”: the binding signal was 16300 fluorescence intensity (a.u.). Turning to “TCATTGATTGATTGGTACTACTACTGCTAGAAGAAAAGGCCGGAGTCACCTAGTGCAG”, the binding signal was 55200 fluorescence intensity (a.u.). With “CGGGCAACACATTCCTTGATTGAGCCAAGCTCGGTAACACCGGAGTCACCTAGTGCAG”, the binding signal is 7920 fluorescence intensity (a.u.).

Take “ACCTATATATTAATGATAGGTAATTTGACATTCAACCATACGGAGTCACCTAGTGCAG”: the binding signal is 13300 fluorescence intensity (a.u.). On to “AAACCTGATCAGTTTGATTTAATTTGAGTTAATTTAGCTTCGGAGTCACCTAGTGCAG”, for which the binding signal was 17100 fluorescence intensity (a.u.).

Turning to “GTTAAATTAATAATGATATGCTGGGTAGCTAGCAATCTTGCGGAGTCACCTAGTGCAG”, the binding signal is 39400 fluorescence intensity (a.u.). Turning to “CAATCTCTGATGATTGGCCCATCACCACTATATATATGATCGGAGTCACCTAGTGCAG”, the binding signal is 21800 fluorescence intensity (a.u.). Take “ATGGGATTGGGTGTATGACAATGATGCTACTAATCCCATTCGGAGTCACCTAGTGCAG”: the binding signal was 3840 fluorescence intensity (a.u.). In the case of “ATGTTTGGACACTAATTATAAATATTAAACGTAGACTATTCGGAGTCACCTAGTGCAG” it was 5950 fluorescence intensity (a.u.). For the sequence “GAGTTAACAGATATGGTCCGAACCTGTCGGGCGAGTTGACCGGAGTCACCTAGTGCAG”, the binding signal was 7220 fluorescence intensity (a.u.). Take “TACTGCTCACCATTGATTATTTCCATGGAAATACAGTAGGCGGAGTCACCTAGTGCAG”: the binding signal was 4010 fluorescence intensity (a.u.). In the case of “AGTTAATGAGTTATTAAGAACAGTTAACTACCGAAGGAAGCGGAGTCACCTAGTGCAG” it was 15600 fluorescence intensity (a.u.). With “GAGGTGAAGGTAAACAAATTGAATTGATCAAACGACGACGCGGAGTCACCTAGTGCAG”, the binding signal was 6250 fluorescence intensity (a.u.).

As to “GTAAGTGATATAAATCTTTTCTATGATTGCGAAAAGTAAACGGAGTCACCTAGTGCAG”, the binding signal was 11500 fluorescence intensity (a.u.).

In the case of “CTTAATGAGAGAAGAAAATTAGAGATATAATTTGGATAGTCGGAGTCACCTAGTGCAG”, the binding signal was 13400 fluorescence intensity (a.u.). For “AAACAAATTTTCAGTTTTGTCAATTCCATCCTAAACTTTGCGGAGTCACCTAGTGCAG”, the binding signal was 5320 fluorescence intensity (a.u.). Then “CATCTTATCTATCTAGATTTGTAATTCTAAGATGTGTCTTCGGAGTCACCTAGTGCAG”, with 4570 fluorescence intensity (a.u.); and “GGCTAATGATGATGCGGATGGATGCTGCTAATGACTGTGGCGGAGTCACCTAGTGCAG”, with 14200 fluorescence intensity (a.u.). In the case of “CAATTTGACAGATATAATTATAGTACAATCGTAGTATAATCGGAGTCACCTAGTGCAG”, the binding signal is 33200 fluorescence intensity (a.u.). As for “GAAGATGATGATGATTTAGCATGCAAATGAGCAGTTGACACGGAGTCACCTAGTGCAG”, the binding signal is 13800 fluorescence intensity (a.u.).

“ACGTTATTAATTACTTAGTACTACTATGAGTTAACTATGGCGGAGTCACCTAGTGCAG”: the binding signal was 18500 fluorescence intensity (a.u.).

As for “ATTAAACTTGCTCTAAACTCGTAATTTGTCCCGCTAAAATCGGAGTCACCTAGTGCAG”, the binding signal is 3300 fluorescence intensity (a.u.). On to “TTAAAACTCAATTAATCACACGTTATTACCACCTCGTTTTCGGAGTCACCTAGTGCAG”, for which the binding signal is 7750 fluorescence intensity (a.u.). As to “ATATTAGTTGATAATTACTGGCCTACTGGATCAATCTTGACGGAGTCACCTAGTGCAG”, the binding signal was 7940 fluorescence intensity (a.u.). With “AAAGAGTTATTGATAGCATGATACATATACAGATATAGATCGGAGTCACCTAGTGCAG”, the binding signal was 5040 fluorescence intensity (a.u.). Turning to “AAGAATTTGAAAATTAGTACAAAATTTGCAATACGGAAATCGGAGTCACCTAGTGCAG”, the binding signal is 7120 fluorescence intensity (a.u.). Take “TCATAATTTGAATTCTTCTGCGCAAATTTGTTGCCGCACTCGGAGTCACCTAGTGCAG”: the binding signal is 14900 fluorescence intensity (a.u.).

With “AAAGACTAATCTGAGGCCCCAATCACCACTTCATCAGCACCGGAGTCACCTAGTGCAG”, the binding signal was 4570 fluorescence intensity (a.u.). As to “TTTCCTGATTGCCTTTGAAAATTATTTTATCTTGTGCATACGGAGTCACCTAGTGCAG”, the binding signal is 37200 fluorescence intensity (a.u.). Then “TCTGATTTATATGGCTGAATCACGATACGGGATATCTCGACGGAGTCACCTAGTGCAG”, with 30300 fluorescence intensity (a.u.); and “TGTTGATAGACAGCACATTATATTGCACACACATACTACACGGAGTCACCTAGTGCAG”, with 24300 fluorescence intensity (a.u.).

Turning to “TGTCAGATTGGATGGATTGTGCTACTGTACATGCATAGTGCGGAGTCACCTAGTGCAG”, the binding signal is 37000 fluorescence intensity (a.u.). Take “TTAGCACATGATTAATTGAGTATTAATTATTTTAAACTTCCGGAGTCACCTAGTGCAG”: the binding signal is 22800 fluorescence intensity (a.u.). Turning to “CATCAATTCTAGATTTGATAAAAGGTCCCATTTTACCCAACGGAGTCACCTAGTGCAG”, the binding signal is 3730 fluorescence intensity (a.u.).

As to “CAAATAAATATACATGATTTTACTGAATTTTCAGCAATATCGGAGTCACCTAGTGCAG”, the binding signal was 4720 fluorescence intensity (a.u.). On to “AATTGATAGGAAACAAATAAAGTAAAATTAATATGATGTACGGAGTCACCTAGTGCAG”, for which the binding signal was 8380 fluorescence intensity (a.u.). In the case of “CAAAATTTTGAGTGATCTTAGATCTGTTGATTCTTCTTATCGGAGTCACCTAGTGCAG” it was 10300 fluorescence intensity (a.u.); in that of “AATAATTAATTACTCGCAGCAAAGGACGGACAGTTTCCTGCGGAGTCACCTAGTGCAG”, 42600 fluorescence intensity (a.u.); in that of “TTTAATTACTCAACTGTTTTACCGCTTTGCTCAATAAAATCGGAGTCACCTAGTGCAG”, 8820 fluorescence intensity (a.u.). On to “TCTGTCTGATTTGTAATCTTTTCCCTTGGCTTTGAGCGTGCGGAGTCACCTAGTGCAG”, for which the binding signal was 29400 fluorescence intensity (a.u.). Take “CTTGATTTACTTCTAATCATTTAGATCACATTGTTGAGAACGGAGTCACCTAGTGCAG”: the binding signal is 38500 fluorescence intensity (a.u.). As for “AGATGGCAAAATAGTTAATTATCTCCCACTGAACTTGTGTCGGAGTCACCTAGTGCAG”, the binding signal was 3620 fluorescence intensity (a.u.).
